Reference: patent publication US20080226682A1, “Immunoactive Compositions for Improved Oral Delivery of Vaccines and Therapeutic Agents” (PerOs Systems Technologies, Inc., priority 2007, published 2008)

B1: PSA: small pea (Pisum sativum) lectin (protein, UniProt P02867 31-217; P02867 218-275, looked up)
Lectin beta chain: TETTSFLITKFSPDQQNLIFQGDGYTTKEKLTLTKAVKNTVGRALYSSPIHIWDRETGNVANFVTSFTFVINAPNSYNVADGFTFFIAPVDTKPQTGGGYLGVFNSAEYDKTTQTVAVEFDTFYNAAWDPSNRDRHIGIDVNSIKSVNTKSWKLQNGEEANVVIAFNAATNVLTVSLTYPNSLEEEN
Lectin alpha chain: VTSYTLSDVVSLKDVVPEWVRIGFSATTGAEYAAHEVLSWSFHSELSGTSSSKQAADA
B2: PNA: peanut (Arachis hypogaea) lectin (protein, UniProt P02872 24-273, looked up)
Galactose-binding lectin: AETVSFNFNSFSEGNPAINFQGDVTVLSNGNIQLTNLNKVNSVGRVLYAMPVRIWSSATGNVASFLTSFSFEMKDIKDYDPADGIIFFIAPEDTQIPAGSIGGGTLGVSDTKGAGHFVGVEFDTYSNSEYNDPPTDHVGIDVNSVDSVKTVPWNSVSGAVVKVTVIYDSSTKTLSVAVTNDNGDITTIAQVVDLKAKLPERVKFGFSASGSLGGRQIHLIRSWSFTSTLITTTRRSIDNNEKKIMNMASA

Assays:
avian immune cells [1] = conditions: purified isoflavone
avian immune cells [2] = test: Leukocyte mitogenic response (BrdU-based ELISA, stimulation index); type: cell-based; conditions: purified lectin at mitogen concentration (5-40 μg/mL), day 4

Row | Molecule | Cytokine Secretion Profile (determined by RT-PCR) (avian immune cells [1]) | Immunomodulatory effect (stimulation index class) (avian immune cells [2])
1 | COc1ccc(-c2coc3cc(O)cc(O)c3c2=O)cc1 [biochanin A, 5,7-dihydroxy 4′-methoxy isoflavone] | IL-4 | –
2 | O=c1c(-c2ccc(O)cc2)coc2cc(O)ccc12 [daidzein] | None | –
3 | O=c1c(-c2ccc(O)cc2)coc2cc(O)cc(O)c12 [genistein, 4′5,7-trihydroxyisoflavone] | IFN-gamma | –
4 | SBA: Soybean (Glycine max) Lectin | – | +++ (≧10 is assigned a value of +++ (strong mitogen))
5 | B1 | – | +++ (≧10 is assigned a value of +++ (strong mitogen))
6 | B2 | – | +++ (≧10 is assigned a value of +++ (strong mitogen))
